# Source: PubChem BioAssay AID2675 (National Center for Advancing Translational Sciences (NCATS), 2010)
# The whole screen tested about 280,000 compounds, of which about 100 (0.036%) were called active. Inconclusive means that the source gave no clear call. Such entries were picked first, then a sample of the others. Calls follow the shape of the dose curve; as a rule, active = well fitted inhibition curve with a large enough effect in the signal ratio, with a control signal flat (not every such curve was filed as active); inconclusive = small, poorly fitted or top-dose-only effect, or effect the other way, or a change in a side signal; inactive = no such curve, though single readings can be large or run the other way; the % refers to the signal ratio. Potencies beside an inconclusive call are fits to weak or partial responses and may not hold up. A note “side channel” means that the fit belongs to a control or component signal, not to the main read-out.
# Target: Muscleblind-like protein 1 (Homo sapiens) (UniProt Q9NR56)
# Sequence of UniProt Q9NR56 (Q9NR56 whole entry, looked up): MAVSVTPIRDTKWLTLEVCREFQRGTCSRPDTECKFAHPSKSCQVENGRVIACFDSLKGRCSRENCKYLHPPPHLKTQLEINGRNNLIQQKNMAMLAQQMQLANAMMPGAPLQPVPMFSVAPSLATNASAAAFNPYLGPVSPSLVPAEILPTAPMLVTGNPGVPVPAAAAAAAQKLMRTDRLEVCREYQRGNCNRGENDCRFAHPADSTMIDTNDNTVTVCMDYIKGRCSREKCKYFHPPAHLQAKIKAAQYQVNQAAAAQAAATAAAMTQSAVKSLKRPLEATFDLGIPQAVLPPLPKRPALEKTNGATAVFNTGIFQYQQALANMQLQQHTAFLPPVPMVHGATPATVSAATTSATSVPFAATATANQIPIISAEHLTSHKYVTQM
# Test: qHTS Assay for Inhibitors of MBNL1-poly(CUG) RNA binding
# Settings: TR-FRET MBNL1-His/biotin-(CUG)12 binding, 665/545 ratio; series mostly up to 57.5 µM
# In short: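 His-tagged MBNL1 binding to biotinylated (CUG)12 RNA was measured by TR-FRET using terbium anti-His antibody (0.055 ng/ul final) and streptavidin-XL665 (5 nM final). Compounds were titrated 92 nM to 58 uM; 60 min at room temperature.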
# Potency is read from the fitted curve at half-maximal effect; tags tell the direction and shape of the fitted curve or compound fluorescence and quenching.
row,SMILES,Potency
1,O=C(CN1CCN(C(=O)C2CCCO2)CC1)Nc1ccc(Cl)cc1 (stereo not drawn),"inconclusive: 0.447 µM [quencher, side channel, full curve]"
2,CC1(C)CC(=O)C2=C(C1)c1c(ccc3ccccc13)NC2c1ccc(OCC(=O)O)cc1 (stereo not drawn),"inconclusive: 22.4 µM [quencher, side channel, partial curve]"
3,O=C(N/N=C/c1cc(Br)ccc1OC(=O)c1ccc(Br)cc1)c1ccncc1,inactive
4,O=c1ccc(-c2ccc(S(=O)(=O)Nc3cccc(Br)c3)o2)n[nH]1,"inconclusive: 28.2 µM [quencher, side channel, partial curve]"
5,O=[N+]([O-])c1ccc(N2CCN(Cc3cccc([N+](=O)[O-])c3)CC2)cc1,"inconclusive: 15.8 µM [quencher, side channel, partial curve]"
6,CNC(CC(=O)c1ccc([N+](=O)[O-])cc1)C(Cl)(Cl)Cl (stereo not drawn),"inconclusive: 7.94 µM [quencher, side channel, full curve]"
7,Cc1ccc(C(=O)N/C(=C\c2cccc([N+](=O)[O-])c2)C(=O)Nc2cccc(C(=O)O)c2)cc1,"inconclusive: 20 µM [quencher, side channel, partial curve]"
8,CSc1ccccc1NC(=O)c1c(Br)cnn1C,inactive
9,Cc1cccc(N2C(=O)c3cccc4c(N)ccc(c34)C2=O)c1,"inconclusive: 3.55 µM [quencher, side channel, full curve]"
10,Cc1ccc(NC(=O)c2sc3ncnc(N4CCN(c5ccccn5)CC4)c3c2C)c(C)c1,inactive
11,CC(=O)Nc1ccc(C(=O)NNC(=O)c2cc([N+](=O)[O-])cc([N+](=O)[O-])c2)cc1,"inconclusive: 1.58 µM [quencher, side channel, full curve]"
12,CN(C)S(=O)(=O)n1cc(/C=C(\NC(=O)c2ccccc2)C(=O)NCCCn2ccnc2)c2ccccc21,"inconclusive: 25.1 µM [quencher, side channel, single point]"
13,O=[N+]([O-])c1cc(-n2cnnn2)ccc1N1CCC(Cc2ccccc2)CC1,"inconclusive: 17.8 µM [quencher, side channel, single point]"
14,COc1ccc(CNC(=O)Cn2nc(-c3ccc4c(c3)OCCO4)ccc2=O)cc1,"inconclusive: 12.6 µM [quencher, side channel, partial curve]"
15,Cc1ccc2[nH]cc(CCNC(=O)C3CCCO3)c2c1 (stereo not drawn),inactive
16,O=C(N/N=C/C(Cl)=C/c1ccccc1)c1cnccn1,"inconclusive: 14.1 µM [quencher, side channel, partial curve]"
17,Cc1c(C)c2cc(Cl)c(OCc3nn[nH]n3)cc2oc1=O,"inconclusive: 25.1 µM [quencher, side channel, single point]"
18,Cc1ccc(O)c(C(=O)c2cc(C#N)c(=O)n(Cc3ccccc3)c2)c1,inactive
19,Cc1ccccc1NC(=O)c1c(C)nn(-c2ccccc2)c1Cl,inactive

row,SMILES,Potency
1,O=C(Cc1n[nH]c(=O)[nH]c1=O)N/N=C/c1c(O)ccc2ccccc12,"inconclusive: 31.6 µM [quencher, side channel, single point]"
2,CCOc1ccc2[nH]c(=O)c(CN(CCO)C(=O)c3ccc(F)cc3)cc2c1,inactive
3,O=C(COc1ccc([N+](=O)[O-])cc1)Nc1ccc(CN2CCOCC2)cc1,"inconclusive: 44.7 µM [quencher, side channel, partial curve, poor fit]"
4,O=C(NNc1ccccc1)Nc1ccccc1F,inactive
5,C=CCN1C(=O)/C(=c2\sc3nc(=O)c(Cc4ccccc4Cl)nn3c2=O)c2ccccc21,"inconclusive: 158 µM [inhibitor, partial curve, poor fit]"
6,COC(=O)C(NC(=O)c1cccnc1Cl)C(C)C (stereo not drawn),inactive
7,Cc1cccc(C)c1NC(=O)C1=C(O)c2ccccc2N(C)S1(=O)=O,"inconclusive: 39.8 µM [quencher, side channel, single point]"
8,Cc1cc[n+](CCC(=O)O)c2ccccc12,"inconclusive: 31.6 µM [quencher, side channel, partial curve]"
9,CCn1c(SCC(=O)N/N=C/C=C/c2ccco2)nnc1-c1ccccc1,"inconclusive: 17.8 µM [quencher, side channel, partial curve, poor fit]"
10,COc1cccc(/C=C2\SC(=S)N(CCCC(=O)Nc3ccc(C(=O)O)cc3)C2=O)c1,"inconclusive: 25.1 µM [quencher, single point]"
11,CN(C)/N=C/c1ccc([N+](=O)[O-])cc1[N+](=O)[O-],"inconclusive: 14.1 µM [quencher, side channel, partial curve]"
12,CC1=CC(C)(C)N(C(=O)CSc2nncn2C)c2ccccc21,"inconclusive: 39.8 µM [quencher, side channel, single point]"
13,CCOc1ccc2nc(N=NC3=C(O)CC(C)(C)CC3=O)sc2c1,"inconclusive: 2.24 µM [quencher, side channel, full curve]"
14,CCOc1cc(C(c2c(C)[nH][nH]c2=O)c2c(C)[nH][nH]c2=O)ccc1OCc1ccc([N+](=O)[O-])cc1,"inconclusive: 25.1 µM [quencher, side channel, partial curve]"
15,CCOc1cc(/C=C2/C(=N)N3C=CSC3=NC2=O)ccc1OCCCOc1ccccc1C,inactive
16,CCCN(CCC)CCCNC(=O)c1cc2cc3ccc(Cl)cc3nc2o1,"inconclusive: 15.8 µM [quencher, side channel, partial curve]"
17,C=CCNC(=O)/C(=C/c1cccc([N+](=O)[O-])c1)NC(=O)c1ccccc1,"inconclusive: 15.8 µM [quencher, side channel, partial curve]"
18,C=CCn1c(COc2ccc(Cl)cc2)nnc1SCc1ccc(C#N)cc1,inactive
19,Nc1c([N+](=O)[O-])cc(-c2cnc[nH]2)cc1[N+](=O)[O-],"inconclusive: 1.41 µM [quencher, side channel, full curve]"
